This is an account of results in the supplement of paper PMC11417369.

This is one part of the list.

The test relates to PfHDP1 homeodomain (GST-tagged). The test is described as follows: gcPBM binding intensity (ln(normalized median fluorescence intensity)); higher = stronger DNA binding. The method, boiled down: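 Probes on an Agilent 4 × 180k array were primer-extended, double-stranded and 36 bp long, taken from intergenic genomic regions, with negative controls added. GST-tagged P. falciparum DNA-binding domains from E. coli, about 25 μg on average, were applied to the array for 1 h in 1× PBS containing 1% milk, 0.2 mg/ml BSA, 0.5% salmon testes DNA and 0.03% Triton X-100. Binding intensity, obtained after Alexa488 anti-GST antibody detection and a 488 nm scan, is the highest Masliner-normalised natural-log median intensity across replicate spots of either probe orientation.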
With “GGAATATAAATACATACACACATATATATATATATA [CACACA_site4998]”, the “gcPBM binding intensity (ln)” value was determined as 9.34.
In the case of “ATGAATATTTACAATCTTATTATGTTCAAAATTAAT [CACACA_negctrl_site592]” it was 6.16; in that of “TACATGCTTATTTTAACACACAAATGGTAGTAATAA [CACACA_site766]”, 6.25.
In the case of “AATAAAAATAACCTAACATGCAAAAAAAAAAAAAAA [TGCATGCA_site718]” it was 6.37; in that of “TGAATGCTTTTATGCACACGTACAAAAATATTATAT [CACACA_site2668]”, 10.4.
The same measure for “GTCATTAAAAAAATATGTACTTAAATGTATGCATAT [XGTACX_site5951]”: 6.44.
For the sequence “CAAAATGATATGACAACACACAACCTATAGTAAGAC [CACACA_site1287]”, the “gcPBM binding intensity (ln)” value was 6.91.
The same measure for “TAATATATAATAAAGTGTACATATGCTTTATTATTA [XGTACX_site1920]”: 6.81; for “TGACGACATTTCTTATGTACTAATTTTTCTTCCTTT [XGTACX_site4391]”: 6.09.
The same measure for “TAAAAAAAGAAAAAAAGTACATGCTACTTTTATGAT [XGTACX_site7818]”: 6.34; for “AGTAAATAACACAAATATGAATGAAAAAAAAAATAT [GTGCAC_negctrl_site235]”: 6.82; for “CGTATGAGTAAATACACACCCACGTATATATATAAA [CACACA_site5728]”: 6.53.
The same measure for “ATATATATATAGTACGCACACATAGTTGTACATTAA [CACACA_site2787]”: 8.91; for “CAACTTATTAAAAGTCGTACAAATGGGAAGAAGGAA [XGTACX_site6325]”: 6.41.
On to “TGTGCGGAAATAAGTGCACACATAGATATCTGTATT [CACACA_site5935]”, for which the “gcPBM binding intensity (ln)” value is 9.71.
With “ATAATTATTAATATAGTGCATTGGCATAATAATATA [GTGCAC_site9810]”, the “gcPBM binding intensity (ln)” value came to 8.03.
In the case of “TTATACAACAAGAAAATTATAAAATGTAACATATAT [GTGCAC_negctrl_site406]” it was 6.51; in that of “ATATTAATATAATGTGCATGTTCAATGATCTTTTTA [TGCATGCA_site22]”, 8.51; in that of “TTAGATATAATATATACACACCAACGAACGAAGAAA [CACACA_site4763]”, 7.23.
In the case of “TACAAATATATATGCACACACATATATGTATATGTG [CACACA_site3075]”, the “gcPBM binding intensity (ln)” value worked out at 10.4.
In the case of “TATTTTTTAACACAACGTACATATAAAAAATATTTA [XGTACX_site6025]” it was 6.42.
As for “AAATCCTTATTTTTTTGTACGTAATATTTTATATGG [XGTACX_site1530]”, the “gcPBM binding intensity (ln)” value is 6.74.
In the case of “ATGAATGTCCCAAGATGTACAATTATATATAACACA [XGTACX_site4702]” it was 6.55; in that of “TTTTAAGATATAAATTAATACTTATATATATAGATA [CACACA_negctrl_site22]”, 5.97; in that of “TAATAAATAAGACACACACACATATATATATATTAT [CACACA_site1389]”, 6.95.
In the case of “GAGTAAAAATTAAAATGTACATATTATATATATTTA [XGTACX_site1319]” it was 6.22; in that of “AAAAATTTTATATTCACACACATATTTATATTTATA [CACACA_site6439]”, 6.49.
In the case of “CCTTTCACATATAATACATGCATTATTATATATGAA [TGCATGCA_site287]” it was 6.91.
For the sequence “AGAATAATATAATAAAGTACAAACCTATCTAACTAC [XGTACX_site5477]”, the “gcPBM binding intensity (ln)” value is 6.69.
The same measure for “ATTATAAATAAATATTGTACTTATATGATCTATTTG [XGTACX_site3820]”: 6.25.
Take “GGATATATTATATGTACACACACATATAAGGGATTA [CACACA_site7884]”: the “gcPBM binding intensity (ln)” value was 6.53.
The same measure for “ATTGCATTTGTAGATAATACAATATGGATTGTTATA [CACACA_negctrl_site1749]”: 6.02.
In the case of “AAAAAAATTTATTAAAGTACTAGATAATCATATAAA [XGTACX_site1455]” it was 6.41; in that of “TTCTTTTCTCTTTTAATCATATTATATAAATGAATA [CACACA_negctrl_site820]”, 6.71.
The same measure for “ATATATAAAAAAGCTAGTACACAAAAATATATAATG [XGTACX_site3001]”: 6.94.
For the sequence “GTAAATATATATATATATATATATATATATATATAT [GTGCAC_negctrl_site239]”, the “gcPBM binding intensity (ln)” value turned out to be 9.41.
The same measure for CATTTTATTTTCTTTGTGCACAAAAATATTTTTTCT: 10.8; for “TTGTAACAAAAGTACACACACATTTCTATAAATTTT [CACACA_site2772]”: 6.45; for “TTTATATACTATCAACGTACAAAAGTAATAAAAATA [XGTACX_site4343]”: 6.59.
In the case of “GGATTTTACCATAGCACACATATATGAATATTTTTC [CACACA_site1814]” it was 6.65; in that of “TGTTCTAATTTTAATTGTACATATATACATATATAT [XGTACX_site7290]”, 6.37.
In the case of “AAAGTTATGATATATACACACATATAAATATTAAAT [CACACA_site6361]” it was 6.57.
Turning to “GAAATAATAAAATCGACACACAAAAAAAAAAAAAAA [CACACA_site3476]”, the “gcPBM binding intensity (ln)” value was found to be 6.39.
The same measure for “CTATTTAAAATTTGAACACACATTATTTATTTTAAA [CACACA_site3114]”: 6.41.
